Publication PMC4336329 (PLoS ONE, 2015)
Screen size: about 310,000 compounds; about 2,200 (0.71%) showed an effect of 50% or more. The effect is printed as a negative number. The list shows a part of the results.

The compounds below were run against human ether-à-go-go-related gene (hERG) potassium channel (human, UniProt Q12809) (assay: primary screen, population patch clamp on CHO cells stably expressing hERG).
Sequence of human ether-à-go-go-related gene (hERG) potassium channel (Q12809 whole entry, looked up): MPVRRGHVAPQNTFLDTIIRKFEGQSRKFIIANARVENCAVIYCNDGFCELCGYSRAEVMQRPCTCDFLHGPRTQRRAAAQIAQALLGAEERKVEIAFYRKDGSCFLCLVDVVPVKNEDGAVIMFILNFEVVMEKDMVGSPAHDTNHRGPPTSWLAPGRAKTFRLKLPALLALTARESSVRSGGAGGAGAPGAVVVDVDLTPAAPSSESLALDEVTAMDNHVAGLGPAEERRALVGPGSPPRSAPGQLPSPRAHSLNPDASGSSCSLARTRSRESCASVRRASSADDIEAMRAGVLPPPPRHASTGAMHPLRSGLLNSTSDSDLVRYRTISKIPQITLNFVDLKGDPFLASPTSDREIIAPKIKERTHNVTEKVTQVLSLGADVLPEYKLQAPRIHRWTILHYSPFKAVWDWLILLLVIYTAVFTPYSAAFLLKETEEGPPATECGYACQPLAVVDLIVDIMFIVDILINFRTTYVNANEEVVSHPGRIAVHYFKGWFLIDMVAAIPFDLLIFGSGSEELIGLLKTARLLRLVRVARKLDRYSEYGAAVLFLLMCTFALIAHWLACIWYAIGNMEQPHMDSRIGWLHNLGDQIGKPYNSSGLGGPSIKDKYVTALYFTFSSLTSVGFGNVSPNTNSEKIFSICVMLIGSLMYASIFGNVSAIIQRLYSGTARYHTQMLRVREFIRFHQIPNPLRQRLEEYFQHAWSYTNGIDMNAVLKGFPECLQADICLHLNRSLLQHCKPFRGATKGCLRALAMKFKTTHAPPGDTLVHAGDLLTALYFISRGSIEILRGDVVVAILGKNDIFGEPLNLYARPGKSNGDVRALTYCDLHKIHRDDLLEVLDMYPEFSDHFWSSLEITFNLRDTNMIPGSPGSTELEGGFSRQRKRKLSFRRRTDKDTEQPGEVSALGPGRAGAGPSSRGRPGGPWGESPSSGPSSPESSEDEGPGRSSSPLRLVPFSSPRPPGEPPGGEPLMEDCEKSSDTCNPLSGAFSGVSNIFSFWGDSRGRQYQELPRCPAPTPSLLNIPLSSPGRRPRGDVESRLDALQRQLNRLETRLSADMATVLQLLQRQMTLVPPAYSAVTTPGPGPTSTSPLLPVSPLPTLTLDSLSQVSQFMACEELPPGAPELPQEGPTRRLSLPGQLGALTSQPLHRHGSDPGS

SMILES | hERG current change (%, negative = inhibition) at 1uM
CC(=O)NNc1nc(-c2ccc(NC(C)=O)cc2)cs1 | 17.9%
CC(Oc1ccccc1)c1nnc(SCC(=O)NC2CC2)n1C (stereo not drawn) | 16.1%
S=c1[nH]nc(-c2cc(-c3ccccc3)n[nH]2)n1/N=C/C=C/c1ccco1 | 15.2%
COc1ccc(OCCCCN(C)Cc2ccccc2)cc1.O=C(O)C(=O)O | 6.99%
CCOP(=O)(c1ccccc1)C1(C#N)CCCC1 (stereo not drawn) | 16.9%
CCn1cc(CNC(=O)C2CCC(=O)N(Cc3ccccc3F)C2)cn1 (stereo not drawn) | 15.8%
CC1=C(C(=O)Nc2cc(C(=O)NCCC(C)C)ccc2C)SCCO1 | 9.03%
Cc1cccc(NC(=O)COC(=O)c2ccccc2-c2nc3ccccc3s2)c1C | 3.57%
CCc1ccc(NC(=O)c2sc3nc4n(c(=O)c3c2C)CCC4)cc1 | 6.34%
O=C(NCc1ccccc1)N1CCN(c2ccc(F)cc2)CC1 | 3.07%
CCc1ccc(/C=C2/SC(=S)N(CCCC(=O)Nc3ccccc3C(=O)O)C2=O)cc1 | 5.43%
COc1ccc(-c2oc3ccccc3c2C(=O)OCc2ccc(O)cc2)cc1 | 6.5%
c1cncc(C(c2nnnn2C2CCCCC2)N2CCN3CCCC3C2)c1 (stereo not drawn) | 14.3%
O=C(COc1cccc(C(F)(F)F)c1)Nc1ccc2[nH]ncc2c1 | 18.8%
COc1ccc(C2/C=C\CN(C(=O)NC(C)C)CC(=O)N2Cc2ccc(F)cc2)cc1 (stereo not drawn) | 11.4%
O=C(CNC(=O)C12CC3CC(CC(C3)C1)C2)OCc1ccc(F)cc1Cl | 7.61%
COC(=O)c1[nH]c2cc(OC)ccc2c1NC(=O)CCN1CCSCC1 | 16.7%
O=C(COC(=O)c1ccccc1Cl)NC(=O)NCc1ccccc1 | 9.65%
CC(C)N(CCNC(=O)C1CCN(S(=O)(=O)N2CCOCC2)CC1)Cc1ccccc1 | 8.89%
CCS(=O)(=O)N1CCC(C(=O)Nc2cccc(F)c2)CC1 | 7.11%
CN(CC(=O)Nc1ccc(N2CCOCC2)cc1)CC(=O)Nc1ccc(Cl)cc1[N+](=O)[O-] | 5.96%
Cc1ccc(-n2nc3c(=O)n(CC(=O)NC4CCCCC4)nc(C)c3c2C)cc1 | 17.9%
CCc1ccccc1NC(=O)Cn1nnc(-c2cccnc2)n1 | 6.37%
CCc1nnc(NC(=O)CSc2nnc(-c3ccccc3O)n2-c2ccc(C)cc2)s1 | 13.7%
